Source: the supplement of paper PMC10369915
The other results are listed elsewhere or left out. Cut-off read from the data, not from the text of the source: active = 3.2 or more and inactive = the rest. Most of these values are background signal.

B1: LRFN1_Y458 (peptide)
chain: MYQVQYNSSVD
B2: LRFN1_Y458_Q455R_YF (peptide)
chain: MFRVQYNSSVD
B3: LRIF1_Y714 (peptide)
chain: NSNAAYEQSHF
B4: LRIG1_Y1029_P1031R (peptide)
chain: TLARLYHRDST
B5: LRIG1_Y1054 (peptide)
chain: RAEAQYLLVSN
B6: LRIG1_Y996 (peptide)
chain: CQGSLYPSNHD
B7: LRIT3_Y326 (peptide)
chain: KDAGDYKCKAK
B8: LRIT3_Y326_C328Y (peptide)
chain: KDAGDYKYKAK
B9: LRIT3_Y326_C328Y_YF (peptide)
chain: KDAGDYKFKAK
B10: LRP1B_Y1988 (peptide)
chain: NGSFRYVIISQ
B11: LRP5_Y1528_A1525V_YF (peptide)
chain: ATVRPYRPFII
B12: LRP5_Y1528_YF (peptide)
chain: ATARPYRPFII
B13: LRP5_Y1552 (peptide)
chain: VCDSDYSASRW
B14: LRRC6_Y70_A74P (peptide)
chain: LKKLEYLNLPL
B15: LRRC7_Y1058 (peptide)
chain: QHNPEYVQQAS
B16: LRRC7_Y1058_H1054Y (peptide)
chain: QYNPEYVQQAS
B17: LRRC7_Y1058_S1063T (peptide)
chain: QHNPEYVQQAT
B18: LRRC7_Y234 (peptide)
chain: LKMLVYLDMSK
B19: LRRC7_Y234_L235M (peptide)
chain: LKMLVYMDMSK
B20: LRRK2_Y1402 (peptide)
chain: GREEFYSTHPH
B21: LRRK2_Y2023_G2019S_YF (peptide)
chain: FSIAQYCCRMG
B22: LRRK2_Y2023_I2020T (peptide)
chain: YGTAQYCCRMG
B23: LRRK2_Y2023_I2020T_YF (peptide)
chain: FGTAQYCCRMG
B24: LRRK2_Y707 (peptide)
chain: VAMDDYLKNVM
B25: LSP1_Y234 (peptide)
chain: QWLEQYTQAIE
B26: LSP1_Y234_Q229K (peptide)
chain: KWLEQYTQAIE
B27: LTK_Y676_R673Q_YF (peptide)
chain: IFQASYFRRGD
B28: LTK_Y676_YF (peptide)
chain: IFRASYFRRGD
B29: LTK_Y677 (peptide)
chain: YRASYYRRGDR
B30: LY75_Y888 (peptide)
chain: DDHFTYSRYPW
B31: LY75_Y888_D884A (peptide)
chain: DAHFTYSRYPW
B32: LY75_Y888_YF (peptide)
chain: DDHFTYSRFPW
B33: LY9_Y603 (peptide)
chain: GENTMYAQVFN
B34: LY9_Y603_M602V (peptide)
chain: GENTVYAQVFN
B35: LYN_Y306 (peptide)
chain: KLVRLYAVVTR
B36: LYN_Y306_V303L (peptide)
chain: KLLRLYAVVTR
B37: LYZL6_Y140_F139S (peptide)
chain: GRPLSYWLTGC

These binders were tested against SHP2 C-SH2 domain E139D (assay: enrichment score (SH2-bound / input frequency) (ratio); bacterial display of known human phosphotyrosine sites (pTyr-Var adds point mutants) read by sequencing; higher = stronger binding; tyrosines were phosphorylated by kinases first). Settings: peptide library: pTyr-Var.
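Note: displayed peptides selected on beads carrying the immobilized SH2 domain, with library peptides lacking any tyrosine serving as negative controls.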

Enrichment score, inactive:
B1 0.98
B2 1.43
B3 0.539
B4 0.68
B5 0.81
B6 0.45
B7 0.816
B8 0.356
B9 0.567
B10 1.27
B11 1
B12 1.05
B13 0.457
B14 1.68
B15 0.4
B16 1.03
B17 0.589
B18 2.61
B19 1.71
B20 1.01
B21 1.77
B22 0.786
B23 1.28
B24 0.781
B25 1.04
B26 1.36
B27 0.315
B28 0.272
B29 0.211
B30 0.814
B31 0.887
B32 0.938
B33 1.7
B34 1.54
B35 0.616
B36 0.645
B37 0.632

Each binder was assayed against SHP2 C-SH2 domain wild-type in the same assay as above. Settings: peptide library: pTyr-Var.

Enrichment score, inactive:
B1 0.888
B2 1.36
B3 0.598
B4 0.678
B5 0.892
B6 0.628
B7 0.806
B8 0.726
B9 0.467
B10 2.43
B11 0.892
B12 0.838
B13 0.578
B14 2.13
B15 0.36
B16 0.908
B17 0.621
B18 2.7
B19 1.6
B20 0.946
B21 1.51
B22 0.807
B23 1.08
B24 0.807
B25 0.765
B26 1.23
B27 0.316
B28 0.243
B29 0.283
B30 0.6
B31 0.857
B32 0.802
B33 2.77
B34 2.66
B35 0.817
B36 1.49
B37 0.755

What follows are binders tested against SHP2 N-SH2 domain L43F in the same assay as above. Settings: peptide library: pTyr-Var.

Enrichment score, active:
B14 3.55

Enrichment score, inactive:
B1 0.923
B2 1.75
B3 0.586
B4 0.507
B5 0.791
B6 0.675
B7 0.938
B8 0.565
B9 0.66
B10 1.15
B11 0.732
B12 1.11
B13 0.57
B15 0.34
B16 0.969
B17 1.02
B18 2.4
B19 1.62
B20 0.872
B21 1.65
B22 0.78
B23 0.97
B24 0.98
B25 1.04
B26 1.03
B27 0.403
B28 0.261
B29 0.218
B30 0.713
B31 1.07
B32 0.95
B33 0.929
B34 1.03
B35 0.368
B36 0.603
B37 0.746

The binders below were run against SHP2 N-SH2 domain T42A in the same assay as above. Settings: peptide library: pTyr-Var.

Enrichment score, active:
B14 7.67

Enrichment score, inactive:
B1 0.907
B2 1.76
B3 0.573
B4 0.551
B5 0.687
B6 0.596
B7 0.661
B8 0.606
B9 0.488
B10 2.17
B11 0.703
B12 0.986
B13 0.58
B15 0.522
B16 0.858
B17 0.323
B18 2.3
B19 1.35
B20 0.776
B21 1.15
B22 0.736
B23 0.995
B24 0.79
B25 0.931
B26 1.01
B27 0.355
B28 0.307
B29 0.263
B30 0.734
B31 0.742
B32 0.791
B33 2.52
B34 2.22
B35 0.441
B36 0.703
B37 0.602

The binders below were run against SHP2 N-SH2 domain T52S in the same assay as above. Settings: peptide library: pTyr-Var.

Enrichment score, inactive:
B1 0.962
B2 1.73
B3 0.572
B4 0.697
B5 0.731
B6 0.546
B7 0.649
B8 0.504
B9 0.479
B10 1.58
B11 0.679
B12 1.04
B13 0.61
B15 0.451
B16 0.74
B17 0.477
B18 2.25
B19 1.91
B20 0.804
B21 1.46
B22 0.774
B23 0.993
B24 0.821
B25 1.09
B26 1.06
B27 0.25
B28 0.242
B29 0.315
B30 0.678
B31 0.881
B32 0.835
B33 1.11
B34 0.988
B35 0.531
B36 0.742
B37 0.658

Enrichment score, active:
B14 4.79

Each binder was assayed against SHP2 N-SH2 domain wild-type in the same assay as above. Settings: peptide library: pTyr-Var.

Enrichment score, active:
B18 3.28

Enrichment score, inactive:
B1 1.11
B2 1.56
B3 0.601
B4 0.896
B5 0.679
B6 0.586
B7 1.06
B8 0.61
B9 0.512
B10 1.1
B11 0.877
B12 1.12
B13 0.605
B14 1.93
B15 0.61
B16 0.829
B17 0.551
B19 1.95
B20 0.841
B21 1.39
B22 0.873
B23 0.84
B24 0.895
B25 0.571
B26 1.16
B27 0.391
B28 0.207
B29 0.228
B30 0.497
B31 0.857
B32 0.828
B33 0.643
B34 0.826
B35 0.455
B36 0.964
B37 0.759
